Our source for the viability, T/C values is PubChem BioAssay AID1963829 (Molecular Pharmacology Branch, DTP, NCI, 2024).

This experiment concerns 935938-334-R-J1-PDC complex spheroid viability. Description: Anticancer human tumor 935938-334-R-J1-PDC patient-derived small intestine adenocarcinoma cell line growth inhibition [POLQ]. As to conditions: stronger effect = lower value. How it is done:
Multicellular complex tumor spheroid response to Polymerase (POL) inhibitors (novobiocin, ART-558, RP6685) in combination with a variety of drugs and investigational agents in selected tumor cell lines
The POL inhibitors (novobiocin, ART-558, and RP6685) were evaluated both individually and in combination with standard of care and investigational anticancer small molecules within a complex spheroid model of solid tumors. . Complex spheroids include a stromal component modeled by human endothelial cells (HUVEC) and fibroblasts modeled by human mesenchymal stem cells (MSCs). The concentration ranges selected for each drug and investigational agent were based upon clinically achievable concentrations if the clinical Cmax of the agent was known.
Compounds. The drugs and investigational agents: novobiocin (NSC847541), ART-558 (NSC835418), RP-6685 (NSC848927), peposertib (NSC802822), ceralasertib (NSC780249), elimusertib (NSC800525), camonsertib (NSC841442), AZD-1390 (NSC803789), olaparib (NSC753686), talazoparib (NSC767125), rucaparib (NSC756644), sotorasib (NSC818433), MRTX-1133 (NSC836407), SN-38 (NSC673596), topotecan (NSC609699), epotoside (NSC141540), doxorubicin (NSC123127), gemcitabine (NSC613327), 5-fluorouracil (NSC19893), paclitaxel (NSC125973), vemurafenib (NSC761431), MSA-2 (NSC828583), SN-011 (NSC837082), adavosertib (NSC754352), prexasertib (NSC758257), carboplatin (NSC241240) and oxaliplatin (NSC266046), were obtained from the National Cancer Institute (NCI) Developmental Therapeutics Program Chemical Repository (21). The FDA-approved anticancer drug set is available from the Developmental Therapeutics Program at https://dtp.cancer.gov/organization/dscb/obtaining/. […] The stock solutions were prepared in dimethyl sulfoxide (DMSO, Sigma-Aldrich, St. Louis, MO, cat. D2650), except for the platinum compounds which were prepared in saline (Quality Biological, Gaithersburg, MD, cat. 114-055-101), at 800-fold the tested concentration and stored at -70 degrees C prior to their use. All drugs and investigational agents were tested over a range starting from a high concentration at or near the clinical Cmax and decreasing in half-log increments. If the clinical Cmax for an agent had not been determined, the highest concentration tested was 10 microM, except for SN-38, which was tested at a high concentration of 1 microM.
Cell Culture. All cells were maintained in an incubator at 37 degrees C and 5% CO2 with 95% humidity. The PDC lines were cultured according to standard operating procedures established by the NCI PDMR (https://pdmr.cancer.gov). Table 3 of the manuscript, lists the cell lines along with the number of the three cell types plated to form the mct-spheroids and media for tumor cell growth. After thawing, all PDC lines, except 997537-175-T-J1-PDC and 415267-285-R-J2-PDC, were cultured in Matrigel-coated flasks prepared with a working solution of 1X Ham's F-12 nutrient mix, without supplementation (Thermo Fisher Scientific, cat. 11765054), 100 U/mL penicillin-streptomycin (Thermo Fisher Scientific, cat. 15140122), and 2.5% Matrigel (Corning Inc., Corning, NY, cat. 354248) for the first three passages. The two PDC lines 997537-175-T-J1-PDC and 415267-285-R-J2-PDC were cultured on uncoated flasks. The 857933-349-R-J2-PDC line was cultured in 6C/Colon 1B media containing advanced DMEM/F-12 (Thermo Fisher Scientific, cat. 12634028), 10 mM HEPES (Thermo Fisher Scientific, cat. 15630080), 1X GlutaMAX supplement (Thermo Fisher Scientific, cat. 35050061), 0.1 mg/mL primocin (InvivoGen, San Diego, CA, cat. ant-pm-2), 10% defined fetal bovine serum, heat inactivated (HyClone Laboratories Inc., Logan, UT, cat. SH30070.03HI), 50% L-WRN conditioned media (ATCC, cat. CRL-3276), 1.25 mM N-Acetyl-L-cysteine (Sigma-Aldrich, cat. A9165), 10 mM nicotinamide (Sigma-Aldrich, cat. N0636), 1X B-27 supplement (Thermo Fisher Scientific, cat. 17504044), 1X N-2 supplement (Thermo Fisher Scientific, cat. […]

The source holds more than one record for some entries. This is not the full list of results. The source may hold further records. The records of an entry are repeats (runs, samples, wells, individuals or studies). Marks such as (2×) count equal records among those shown. Marks such as [2022-09] give the month of the run.
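Note: spheroids exposed to drugs for seven days before viability read; 100% = DMSO vehicle control wells.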

On to `Cc1cccc(N(C)C(=O)C2C(O)CCN2c2nc(C)cc(C(F)(F)F)c2C#N)c1` (stereo not drawn), for which the viability, T/C is 96.7, 102, 78.5, 82.4, 71.4, 118, 109, 83.6% [2023-11] and 87.5, 92.8, 103, 100, 95.8% [2023-12] (compound alone 0.0316 µM); 114, 105, 94.9, 73.8, 94.5, 112, 93.3, 81.4% [2023-11] and 90.7, 90.4, 97.9, 99.3, 86.2% [2023-12] (compound alone 0.1 µM); 96.2, 118, 94.8, 95.7, 101, 107, 95.9, 112% [2023-11] and 124, 96, 94, 96.2, 89.5% [2023-12] (compound alone 0.316 µM); 94.7, 98.3, 99.2, 80.2, 90.4, 112, 98.2, 101% [2023-11] and 87.1, 108, 109, 91.8, 87.2% [2023-12] (compound alone 1 µM); 95.3 (2×), 94.5, 73.9, 108, 97.6, 107, 98.1% [2023-11] and 97.9, 106, 87.5, 95.2, 90.8% [2023-12] (compound alone 3.16 µM); 98.1, 101 (2×), 95, 94.2, 89.1, 108, 95.9% [2023-11] and 119, 85.5, 101, 86.4, 89.6% [2023-12] (compound alone 10 µM).
On to `COC1C(OC(N)=O)C(O)C(Oc2ccc3c(O)c(NC(=O)c4ccc(O)c(CC=C(C)C)c4)c(=O)oc3c2C)OC1(C)C` (stereo not drawn), for which the viability, T/C is 86.3, 95.7, 88.8, 84.6, 89.7, 75.9, 89.2, 91.2, 79.8, 111, 127, 89.4, 98.3% (compound alone 0.0316 µM); 110, 87, 98, 96.5, 112 (2×), 91.4, 92.4, 99.4, 126, 91, 85.5, 101% (compound alone 0.1 µM); 111, 76.3, 107, 105, 101, 81.6, 94.2, 86.8, 90.9, 81.1, 87.1, 84.7, 96.9% (compound alone 0.316 µM); 88.5, 88.8, 108, 98.1, 69.8, 78, 95.8, 92.2, 91, 77.9, 104, 100, 86% (compound alone 1 µM); 106, 118, 114, 87, 82.4, 84.2, 93, 111, 93.1, 112, 94.9, 100, 101% (compound alone 3.16 µM); 95.3, 112, 124, 98.5, 117, 90.5, 97.3, 93.5, 127, 103, 109, 96.6, 96.1% (compound alone 10 µM).
With `Nc1ccc(C#CCN(C(=O)Cc2ncc(C(F)(F)F)cc2C(F)(F)F)c2ccc(F)cc2)nn1`, the viability, T/C by setting is: (compound alone 0.0316 µM) 89.8, 115, 109, 88.5, 80.4, 94.1, 95.4, 100, 110, 72.4, 87, 73.6, 101%; (compound alone 0.1 µM) 103, 102, 85.6 (2×), 67.2, 85.1, 84.5, 101, 86.1, 122, 72, 82.5, 99.7%; (compound alone 0.316 µM) 105, 82.4, 95.7, 113, 111, 116, 77.9, 93.5, 86.7, 101, 91.9, 86.1, 74.4%; (compound alone 1 µM) 103, 84.2, 95.8, 63.6, 96.3, 95.2, 84.6, 104, 83.7, 89.7, 105, 102, 93.6%; (compound alone 3.16 µM) 112 (3×), 90.9, 97.8, 130, 97.2, 103, 104, 97, 79.4, 88.1, 108%; (compound alone 10 µM) 107, 101, 88, 91.4, 102, 94.7, 105, 89.9, 123, 116, 111, 108, 121%.
